This note sets out measurements from the supplement of paper PMC11055344.

Compound in one test: CC1(C)S[C@@H]2[C@H](NC(=O)[C@H](N)c3ccc(O)cc3)C(=O)N2[C@H]1C(=O)O [amoxicillin]
Nature of the test: Broth microdilution.

Compound in a further test: CC1(C)S[C@@H]2[C@H](NC(=O)Cc3ccccc3)C(=O)N2[C@H]1C(=O)O [penicillin G]
As to the kind of experiment: Broth microdilution. Background: Broth dilution looks for growth in wells or tubes with falling amounts of substance.

MIC of nasopharyngeal S. pneumoniae isolates by broth microdilution (range and time not stated); higher = less susceptible. No active / inactive call per row; the paper counts penicillin above 0.06 and amoxicillin above 0.5 mg/L as non-susceptible (EUCAST). The lowest value, 0.01, is taken as the floor ('<='); the source prints it plain. Penicillin G is assumed for 'penicillin'. Isolates are numbered anew. PBP alleles are the type numbers of penicillin-binding proteins 1a, 2b and 2x; equal numbers mean equal sequences.

As to “Streptococcus pneumoniae isolate 276 (PBP alleles 1a 2b 2x: 2_0_2, serotype: 15B/C)”, the minimal inhibitory concentration (MIC) with amoxicillin is not above 0.01 µg/mL; with penicillin G it was 0.03 µg/mL.

With “Streptococcus pneumoniae isolate 277 (PBP alleles 1a 2b 2x: 4_7_7, serotype: 35B)”, the minimal inhibitory concentration (MIC) in the test with amoxicillin and with penicillin G was 1 µg/mL throughout.

Turning to “Streptococcus pneumoniae isolate 278 (PBP alleles 1a 2b 2x: 7_1_1, serotype: 23B1)”, the minimum inhibitory concentration (MIC) with amoxicillin turned out to be 0.06 µg/mL; in the test with penicillin G, 0.25 µg/mL.

For “Streptococcus pneumoniae isolate 279 (PBP alleles 1a 2b 2x: 0_0_0, serotype: 15B/C)”, the MIC was not above 0.01 µg/mL with amoxicillin and 0.03 µg/mL in the test with penicillin G.

Regarding “Streptococcus pneumoniae isolate 280 (PBP alleles 1a 2b 2x: 86_82_162, serotype: Non-typeable/NCC2a)”, the minimum inhibitory concentration (MIC) in the test with amoxicillin and with penicillin G was not above 0.01 µg/mL each time.

For the test system “Streptococcus pneumoniae isolate 281 (PBP alleles 1a 2b 2x: 23_27_77, serotype: 12F)”, the minimum inhibitory concentration (MIC) in the test with amoxicillin and in the test with penicillin G was 0.125 µg/mL throughout.

For “Streptococcus pneumoniae isolate 282 (PBP alleles 1a 2b 2x: 2_0_2, serotype: 21)”, the figures for the minimal inhibitory concentration (MIC) in the test with amoxicillin and with penicillin G were not above 0.01 µg/mL and 0.03 µg/mL, respectively.

For “Streptococcus pneumoniae isolate 283 (PBP alleles 1a 2b 2x: 0_0_3, serotype: 35F)”, the minimal inhibitory concentration (MIC) in the test with amoxicillin is not above 0.01 µg/mL; with penicillin G, 0.03 µg/mL.

For “Streptococcus pneumoniae isolate 284 (PBP alleles 1a 2b 2x: 2_0_6, serotype: 23A)”, the minimum inhibitory concentration (MIC) in the test with amoxicillin and with penicillin G was 0.03 µg/mL throughout.

With “Streptococcus pneumoniae isolate 285 (PBP alleles 1a 2b 2x: New_New_New, serotype: 13)”, the figures for the minimal inhibitory concentration (MIC) with amoxicillin and in the test with penicillin G were 0.125 µg/mL and 0.25 µg/mL, respectively.

“Streptococcus pneumoniae isolate 286 (PBP alleles 1a 2b 2x: 1_0_0, serotype: 15B/C)”: the MIC in the test with amoxicillin was not above 0.01 µg/mL; with penicillin G it was 0.03 µg/mL.

Turning to “Streptococcus pneumoniae isolate 287 (PBP alleles 1a 2b 2x: 0_4_2, serotype: 6C)”, the MIC with amoxicillin and in the test with penicillin G was 0.03 µg/mL in each case.

“Streptococcus pneumoniae isolate 288 (PBP alleles 1a 2b 2x: 2_0_0, serotype: 15B/C)”: the results for the MIC with amoxicillin and with penicillin G were not above 0.01 µg/mL and 0.03 µg/mL, respectively.

Regarding “Streptococcus pneumoniae isolate 289 (PBP alleles 1a 2b 2x: 2_4_0, serotype: 38)”, the minimum inhibitory concentration (MIC) with amoxicillin and with penicillin G was not above 0.01 µg/mL throughout.

On to “Streptococcus pneumoniae isolate 290 (PBP alleles 1a 2b 2x: 2_0_0, serotype: 17F)”, for which the MIC is not above 0.01 µg/mL with amoxicillin and 0.03 µg/mL in the test with penicillin G.

Turning to “Streptococcus pneumoniae isolate 291 (PBP alleles 1a 2b 2x: 2_6_0, serotype: 11A)”, the minimum inhibitory concentration (MIC) in the test with amoxicillin and with penicillin G was not above 0.01 µg/mL in each case.

With “Streptococcus pneumoniae isolate 292 (PBP alleles 1a 2b 2x: 2_3_2, serotype: 3)”, the MIC with amoxicillin and with penicillin G was 0.03 µg/mL each time.

Consider “Streptococcus pneumoniae isolate 293 (PBP alleles 1a 2b 2x: 1_0_0, serotype: 9N)”, for which the MIC with amoxicillin and with penicillin G was 0.03 µg/mL in each case.

Take “Streptococcus pneumoniae isolate 294 (PBP alleles 1a 2b 2x: 0_0_3, serotype: 35F)”: the results for the MIC with amoxicillin and with penicillin G were not above 0.01 µg/mL and 0.03 µg/mL, respectively.

Turning to “Streptococcus pneumoniae isolate 295 (PBP alleles 1a 2b 2x: 23_4_139, serotype: 19F)”, the results for the MIC in the test with amoxicillin and with penicillin G were not above 0.01 µg/mL and 0.06 µg/mL, respectively.

For “Streptococcus pneumoniae isolate 296 (PBP alleles 1a 2b 2x: 2_0_2, serotype: 3)”, the MIC with amoxicillin and with penicillin G was not above 0.01 µg/mL each time.

On to “Streptococcus pneumoniae isolate 297 (PBP alleles 1a 2b 2x: 2_0_2, serotype: 3)”, for which the minimal inhibitory concentration (MIC) with amoxicillin was 0.03 µg/mL; in the test with penicillin G, not above 0.01 µg/mL.

Turning to “Streptococcus pneumoniae isolate 298 (PBP alleles 1a 2b 2x: 7_1_1, serotype: 23B1)”, the results for the MIC in the test with amoxicillin and with penicillin G were 0.03 µg/mL and 0.125 µg/mL, respectively.

Take “Streptococcus pneumoniae isolate 299 (PBP alleles 1a 2b 2x: 2_3_2, serotype: 3)”: the MIC with amoxicillin and with penicillin G was not above 0.01 µg/mL each time.

Take “Streptococcus pneumoniae isolate 300 (PBP alleles 1a 2b 2x: 2_0_2, serotype: 15B/C)”: the minimum inhibitory concentration (MIC) in the test with amoxicillin and with penicillin G was not above 0.01 µg/mL in each case.

For the test system “Streptococcus pneumoniae isolate 301 (PBP alleles 1a 2b 2x: 86_82_162, serotype: Non-typeable/NCC2a)”, the MIC with amoxicillin and in the test with penicillin G was not above 0.01 µg/mL each time.

As for “Streptococcus pneumoniae isolate 302 (PBP alleles 1a 2b 2x: 1_2_2, serotype: 22F)”, the MIC with amoxicillin and with penicillin G was not above 0.01 µg/mL each time.

For the test system “Streptococcus pneumoniae isolate 303 (PBP alleles 1a 2b 2x: 2_0_3, serotype: 7C)”, the MIC with amoxicillin is not above 0.01 µg/mL; with penicillin G it was 0.03 µg/mL.

On to “Streptococcus pneumoniae isolate 304 (PBP alleles 1a 2b 2x: 7_12_New, serotype: 11A)”, for which the minimal inhibitory concentration (MIC) with amoxicillin and with penicillin G was 0.25 µg/mL each time.

Consider “Streptococcus pneumoniae isolate 305 (PBP alleles 1a 2b 2x: 2_6_0, serotype: 11A)”, for which the minimum inhibitory concentration (MIC) with amoxicillin and with penicillin G was not above 0.01 µg/mL throughout.

“Streptococcus pneumoniae isolate 306 (PBP alleles 1a 2b 2x: 11_0_0, serotype: 17F)”: the values for the minimum inhibitory concentration (MIC) in the test with amoxicillin and with penicillin G were not above 0.01 µg/mL and 0.03 µg/mL, respectively.

Take “Streptococcus pneumoniae isolate 307 (PBP alleles 1a 2b 2x: 0_6_2, serotype: 16F)”: the MIC with amoxicillin is not above 0.01 µg/mL; in the test with penicillin G, 0.03 µg/mL.

With “Streptococcus pneumoniae isolate 308 (PBP alleles 1a 2b 2x: 1_0_0, serotype: 15A)”, the MIC with amoxicillin was not above 0.01 µg/mL; with penicillin G it was 0.03 µg/mL.

As to “Streptococcus pneumoniae isolate 309 (PBP alleles 1a 2b 2x: 0_0_148, serotype: 35B)”, the values for the minimum inhibitory concentration (MIC) in the test with amoxicillin and with penicillin G were not above 0.01 µg/mL and 0.06 µg/mL, respectively.

As for “Streptococcus pneumoniae isolate 310 (PBP alleles 1a 2b 2x: 2_0_2, serotype: 15B/C)”, the MIC with amoxicillin was not above 0.01 µg/mL; with penicillin G it was 0.03 µg/mL.

For “Streptococcus pneumoniae isolate 311 (PBP alleles 1a 2b 2x: 24_27_28, serotype: 15A)”, the minimum inhibitory concentration (MIC) with amoxicillin amounted to 0.03 µg/mL; in the test with penicillin G it was 0.25 µg/mL.

As for “Streptococcus pneumoniae isolate 312 (PBP alleles 1a 2b 2x: 78_0_0, serotype: Serogroup 24)”, the minimum inhibitory concentration (MIC) in the test with amoxicillin is not above 0.01 µg/mL; with penicillin G, 0.03 µg/mL.

What is called MIC is the smallest concentration in the dilution series that meets the test's criterion for growth inhibition.
